The other results are listed elsewhere or left out.
Key:
Assay in all cases: glycan array binding signal (z-score within array); higher = stronger binding
Conditions in all cases: glycan notation: IUPAC condensed, linker removed
[1] = molecular target: Neu5Ac(a2-6)GlcNAc(b1-4)GlcNAc
Outline: (§1)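 Columns mapping to the same glycan were averaged after glycan names were converted to IUPAC-condensed notation. The data come from 3228 arrays in the Consortium for Functional Glycomics database, limited to those with an available protein sequence. Binding is reported as a within-array Z-score averaged across arrays of one protein sequence and across linkers.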

[2] = molecular target: Neu5Ac(a2-6)GlcNAc(b1-4)GlcNAc(b1-4)GlcNAc
Outline: as §1

Neu5Ac(a2-8)Neu5Ac = molecular target: Neu5Ac(a2-8)Neu5Ac
Outline: as §1

[3] = molecular target: Neu5Ac(a2-8)Neu5Ac(a2-3)Gal(b1-3)GalNAc(b1-4)[Neu5Ac(a2-3)]Gal(b1-4)Glc
Outline: as §1

[4] = molecular target: Neu5Ac(a2-8)Neu5Ac(a2-3)Gal(b1-3)GalNAc(b1-4)[Neu5Ac(a2-8)Neu5Ac(a2-3)]Gal(b1-4)Glc
Outline: as §1

[5] = molecular target: Neu5Ac(a2-8)Neu5Ac(a2-3)Gal(b1-4)Glc
Outline: as §1

[6] = molecular target: Neu5Ac(a2-8)Neu5Ac(a2-3)Gal(b1-4)GlcNAc
Outline: as §1

[7] = molecular target: Neu5Ac(a2-8)Neu5Ac(a2-3)[Gal(b1-3)GalNAc(b1-4)]Gal(b1-4)Glc
Outline: as §1

[8] = molecular target: Neu5Ac(a2-8)Neu5Ac(a2-3)[GalNAc(b1-4)]Gal(b1-4)Glc
Outline: as §1

[9] = molecular target: Neu5Ac(a2-8)Neu5Ac(a2-8)Neu5Ac
Outline: as §1

[10] = molecular target: Neu5Ac(a2-8)Neu5Ac(a2-8)Neu5Ac(a2-3)Gal(b1-4)Glc
Outline: as §1

[11] = molecular target: Neu5Ac(a2-8)Neu5Ac(a2-8)Neu5Ac(a2-3)[Gal(b1-3)GalNAc(b1-4)]Gal(b1-4)Glc
Outline: as §1

[12] = molecular target: Neu5Ac(a2-8)Neu5Ac(a2-8)Neu5Ac(a2-3)[GalNAc(b1-4)]Gal(b1-4)Glc
Outline: as §1

[13] = molecular target: Neu5Ac(a2-8)Neu5Ac(a2-8)Neu5Ac(a2-8)Neu5Ac(a2-3)[GalNAc(b1-4)]Gal(b1-4)Glc
Outline: as §1

[14] = molecular target: Neu5Ac(a2-8)Neu5Gc(a2-3)Gal(b1-4)GlcNAc
Outline: as §1

[15] = molecular target: Neu5Ac(b2-6)Gal(b1-4)GlcNAc
Outline: as §1

Neu5Ac(b2-6)GalNAc = molecular target: Neu5Ac(b2-6)GalNAc
Outline: as §1

[16] = molecular target: Neu5Ac9Ac(a2-3)Gal(b1-3)GlcNAc
Outline: as §1

[17] = molecular target: Neu5Ac9Ac(a2-3)Gal(b1-4)GlcNAc
Outline: as §1

[18] = molecular target: Neu5Ac9Ac(a2-6)Gal(b1-4)GlcNAc
Outline: as §1

[19] = molecular target: Neu5Gc(a2-3)Gal(b1-3)GlcNAc
Outline: as §1

[20] = molecular target: Neu5Gc(a2-3)Gal(b1-3)[Fuc(a1-4)]GlcNAc
Outline: as §1

Neu5Gc(a2-3)Gal(b1-4)Glc = molecular target: Neu5Gc(a2-3)Gal(b1-4)Glc
Outline: as §1

[21] = molecular target: Neu5Gc(a2-3)Gal(b1-4)GlcNAc
Outline: as §1

[22] = molecular target: Neu5Gc(a2-3)Gal(b1-4)GlcNAc(b1-3)Gal(b1-4)GlcNAc(b1-2)Man(a1-3)[Neu5Gc(a2-3)Gal(b1-4)GlcNAc(b1-3)Gal(b1-4)GlcNAc(b1-2)Man(a1-6)]Man(b1-4)GlcNAc(b1-4)GlcNAc
Outline: as §1

[23] = molecular target: Neu5Gc(a2-3)Gal(b1-4)[Fuc(a1-3)]GlcNAc
Outline: as §1

[24] = molecular target: Neu5Gc(a2-6)Gal(b1-4)GlcNAc
Outline: as §1

Neu5Gc(a2-6)GalNAc = molecular target: Neu5Gc(a2-6)GalNAc
Outline: as §1

[25] = molecular target: Neu5Gc(a2-8)Neu5Ac(a2-3)Gal(b1-4)GlcNAc
Outline: as §1

[26] = molecular target: Neu5Gc(a2-8)Neu5Gc(a2-3)Gal(b1-4)GlcNAc
Outline: as §1

[27] = molecular target: Neu5Gc(a2-8)Neu5Gc(a2-3)Gal(b1-4)GlcNAc(b1-3)Gal(b1-4)GlcNAc
Outline: as §1

[28] = molecular target: Neu5Gc(a2-8)Neu5Gc(a2-6)Gal(b1-4)GlcNAc
Outline: as §1

[29] = molecular target: Neu5Gc(b2-6)Gal(b1-4)GlcNAc
Outline: as §1

B1: AFL5 (Aspergillus fumigatus), Q4WB00 (protein)
chain: MDNFMEMTKKLGHQPELLRLRALDATYDDALEGKLVVAPLDMSEPGKKILDSGTADGTWLRNVRSKQSVPHDYYGSDVEGELFPKDPDGITYFAHSFKDPWPQQYLGFFDLVHIRGSLAGSAPEGPAPVIQNLTTLLKPGGWVQLMEMNAFSPPPNGPAMTDFAKMASEMFTGIGVGDFANNNKSMLEDAGLKNVQEKRVIVNLGKKAKPELHDQSIHGVTGPIVPLTSVARTVKSSFTGEQLDALPARVKEELETEGGQVEMIIAFGQKA
B1 was tested, and the “glycan array binding signal (z-score)” value [1] was 0.209, the “glycan array binding signal (z-score)” value [2] was -0.061 and the “glycan array binding signal (z-score)” value (Neu5Ac(a2-8)Neu5Ac) was -0.198. The “glycan array binding signal (z-score)” value [3] was 0.375, the “glycan array binding signal (z-score)” value [4] was -0.001 and the “glycan array binding signal (z-score)” value [5] was -0.133. For the same binder, the “glycan array binding signal (z-score)” value [6] was -0.652, the “glycan array binding signal (z-score)” value [7] was -0.078 and the “glycan array binding signal (z-score)” value [8] was -0.062. The “glycan array binding signal (z-score)” value [9] was 0.079, the “glycan array binding signal (z-score)” value [10] was -0.171 and the “glycan array binding signal (z-score)” value [11] was 0.067. The “glycan array binding signal (z-score)” value [12] was -0.379, the “glycan array binding signal (z-score)” value [13] was 0.203 and the “glycan array binding signal (z-score)” value [14] was -0.841. For the same binder, the “glycan array binding signal (z-score)” value [15] was -0.4, the “glycan array binding signal (z-score)” value (Neu5Ac(b2-6)GalNAc) was -0.406 and the “glycan array binding signal (z-score)” value [16] was -0.419. For the same binder, the “glycan array binding signal (z-score)” value [17] was 0.295, the “glycan array binding signal (z-score)” value [18] was -0.065 and the “glycan array binding signal (z-score)” value [19] was -0.526. For the same binder, the “glycan array binding signal (z-score)” value [20] was -0.222, the “glycan array binding signal (z-score)” value (Neu5Gc(a2-3)Gal(b1-4)Glc) was -0.576 and the “glycan array binding signal (z-score)” value [21] was -0.191. For the same binder, the “glycan array binding signal (z-score)” value [22] was 0.635, the “glycan array binding signal (z-score)” value [23] was -0.105 and the “glycan array binding signal (z-score)” value [24] was 0.452. The “glycan array binding signal (z-score)” value (Neu5Gc(a2-6)GalNAc) was -0.233, the “glycan array binding signal (z-score)” value [25] was -0.877 and the “glycan array binding signal (z-score)” value [26] was -0.488. The “glycan array binding signal (z-score)” value [27] was -0.34, the “glycan array binding signal (z-score)” value [28] was -0.413 and the “glycan array binding signal (z-score)” value [29] was 0.035.
